The campaign covered roughly 310,000 compounds. About 14,000 (4.5%) showed an effect of 50% or more. Effects have a minus sign here. This is one part of the list.
Each molecule was assayed against human ether-à-go-go-related gene (hERG) potassium channel (human, UniProt Q12809) (assay: primary screen, population patch clamp on CHO cells stably expressing hERG).
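Further: peak tail current of the secondary pulse compared with the same well before compound.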

Sequence of human ether-à-go-go-related gene (hERG) potassium channel (Q12809 whole entry, looked up): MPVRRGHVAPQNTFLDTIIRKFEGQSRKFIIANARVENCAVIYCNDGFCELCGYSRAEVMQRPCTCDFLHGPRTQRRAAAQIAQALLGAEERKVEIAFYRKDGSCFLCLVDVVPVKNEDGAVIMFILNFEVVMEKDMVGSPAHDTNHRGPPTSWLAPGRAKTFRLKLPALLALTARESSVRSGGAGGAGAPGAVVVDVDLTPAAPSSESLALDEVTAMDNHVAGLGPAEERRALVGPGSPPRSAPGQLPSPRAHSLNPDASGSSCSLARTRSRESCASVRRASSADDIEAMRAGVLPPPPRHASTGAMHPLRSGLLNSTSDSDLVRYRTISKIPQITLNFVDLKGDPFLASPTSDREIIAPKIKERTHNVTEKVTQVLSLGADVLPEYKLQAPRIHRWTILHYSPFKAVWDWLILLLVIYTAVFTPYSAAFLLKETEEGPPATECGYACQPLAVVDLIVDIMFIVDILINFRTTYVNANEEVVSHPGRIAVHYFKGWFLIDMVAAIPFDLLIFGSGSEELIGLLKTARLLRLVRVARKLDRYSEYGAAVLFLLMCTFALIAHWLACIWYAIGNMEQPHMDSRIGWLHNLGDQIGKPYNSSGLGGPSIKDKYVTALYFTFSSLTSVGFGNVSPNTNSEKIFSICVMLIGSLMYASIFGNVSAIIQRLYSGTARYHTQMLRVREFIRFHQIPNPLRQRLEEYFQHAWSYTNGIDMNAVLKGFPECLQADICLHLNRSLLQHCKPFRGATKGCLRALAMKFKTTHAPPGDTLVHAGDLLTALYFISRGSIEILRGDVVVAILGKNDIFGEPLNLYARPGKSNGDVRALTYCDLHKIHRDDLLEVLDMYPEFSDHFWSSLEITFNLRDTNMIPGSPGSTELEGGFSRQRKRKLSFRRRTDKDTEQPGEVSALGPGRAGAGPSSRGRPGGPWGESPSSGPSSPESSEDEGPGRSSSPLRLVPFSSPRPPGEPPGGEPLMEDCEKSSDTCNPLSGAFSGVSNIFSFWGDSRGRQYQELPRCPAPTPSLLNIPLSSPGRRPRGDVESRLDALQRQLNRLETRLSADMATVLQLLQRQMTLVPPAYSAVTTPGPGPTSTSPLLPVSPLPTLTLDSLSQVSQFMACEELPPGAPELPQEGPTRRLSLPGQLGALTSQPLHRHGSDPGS

| SMILES | hERG current change (%, negative = inhibition) at 10uM [%] |
| --- | --- |
| CCOC1CCCCC1NS(=O)(=O)c1ccc(Cl)cc1 (stereo not drawn) | -8.18 |
| COc1cc(C(=O)OCC(=O)c2cc(C)n(CC3CCCO3)c2C)ccc1OCC(=O)N1CCOCC1 (stereo not drawn) | 7.69 |
| O=C(c1cc2ccccc2o1)n1nnc2ccccc21 | 7.25 |
| COc1ccccc1C1=NOC(COC(=O)c2ccc3ccccc3n2)C1 (stereo not drawn) | -14.9 |
| Cc1cc(C)cc(OCC(=O)N(Cc2ccccc2)C2CCS(=O)(=O)C2)c1 (stereo not drawn) | -20.9 |
| Cc1ccc(NC(=O)/C=C/c2ccco2)cc1S(=O)(=O)N1CCCCCC1 | -15.6 |
| O=C(CCC(=O)N1CCN(S(=O)(=O)c2ccc(Cl)cc2)CC1)Nc1cccc(Br)c1 | -37 |
| COC(=O)c1ccc(NC(=O)Cc2ccccc2)cc1 | -5.36 |
| C=CCn1c(-c2sccc2C)n[nH]c1=S | 25.6 |
| CC(=O)N1c2ccc(S(=O)(=O)N(C)CC(=O)Nc3ccccc3C)cc2CC1C (stereo not drawn) | 18.9 |
| Cc1ccc2c(N)c(C)ccc2c1 | 8.56 |
| O=C(CSc1ccc(-c2ccncc2)nn1)c1ccc(Cl)cc1 | 15.3 |
| CCOC(=O)CNC(=O)Cn1cnc2c(nnn2-c2cccc(Cl)c2)c1=O | -20.3 |
| CC(C)(NC(=O)c1ccccc1)c1nc2ccccc2s1 | -0.808 |
| Cc1nonc1OCCNCCNc1ccc([N+](=O)[O-])cc1Cl | -49.7 |
| Cn1ccnc1SCC(=O)c1ccc(OC(F)F)cc1 | -26.6 |
| Cc1cc(COc2ccccc2OCCN2CCN(C)CC2)no1.Cl | -8.36 |
| Cc1cc(C)cc(CC2CC(=O)N(c3ccc([N+](=O)[O-])cc3)C2=O)c1 (stereo not drawn) | 9.78 |
| O=C(NC12CC3CC(CC(C3)C1)C2)c1ccc(Br)o1 | 4.63 |
| CSc1nnc(NC(=O)c2cc3ccccc3oc2=O)s1 | 2.45 |
| COc1ccccc1NS(=O)(=O)c1cc(NC(=O)c2[nH]c(C)c(C(C)=O)c2C)ccc1N1CCOCC1 | 0.128 |
| O=CNCCCc1nc2ccccc2n1CCc1ccccc1 | -2.98 |

| SMILES | hERG current change (%, negative = inhibition) at 10uM [%] |
| --- | --- |
| COc1ccc(-c2nc(-c3ccccc3)[nH]c(=O)c2C#N)cc1 | 15.9 |
| Cc1cccc2sc(NC(=O)C3=NN(c4ccccc4)C(=O)CC3)nc12 | 6.14 |
| COc1ccc(NC(=O)c2ccc(N(C)S(C)(=O)=O)cc2)cc1OC | 7.23 |
| CCC(=O)Nc1ccc(NC(=S)NC(=O)c2oc3ccccc3c2C)cc1 | 7 |
| NS(=O)(=O)c1ccc(NC(=O)COC(=O)c2cccc(S(=O)(=O)N3CCCC3)c2)cc1 | 9.19 |
| COC(=O)Cc1ccc(NC(=S)NNC(=O)c2ccccc2Br)cc1 | 6.03 |
| NC(=O)C1CCN(C(=O)CN(c2cccc(C(F)(F)F)c2)S(=O)(=O)c2ccccc2)CC1 | -2.35 |
| O=c1[nH]c(N2CCCCC2)nc2ncn(Cc3ccccc3)c12 | 7.95 |
| COC(=O)c1cc(NC(=O)Nc2ccccc2OC)cc(C(=O)OC)c1 | -2.89 |
| COC(C[C@H]1O[C@@H]1[C@H](O)COCc1ccccc1)OC | 23.6 |
| COc1cc(/C=N/NC(=O)c2cccnc2)ccc1OS(=O)(=O)c1ccc(F)cc1 | -15.5 |
| CCc1ccc2nc3c(c(C(=O)O)c2c1)CCC3 | 2.61 |
| CCOC(=O)c1c(C)[nH]c(C(=O)C(C)OC(=O)c2ccc(NC(=O)CC#N)cc2)c1C (stereo not drawn) | 5.66 |
| O=S(=O)(c1ccc2ccccc2c1)n1cnc2ccccc21 | -4.44 |
| CN1C(C(=O)NCC2CC2)CC2Cn3c(nc4cc(Cl)c(Cl)cc43)C21 (stereo not drawn) | -34.3 |
| CSc1nnc(Cn2c(=O)sc3ccccc32)n1-c1ccccc1 | -4.4 |
| CCCCNC(=O)c1sc(=S)n2c1[nH]c(=O)c1ccccc12 | 3.36 |
| CC(C)CC(=O)Nc1ccc(C(=O)COc2ccc(-c3nnco3)cc2)cc1 | 1.78 |
| CCOC(=O)C(NC(C)=O)(Nc1ccc(S(=O)(=O)Nc2nccs2)cc1)C(F)(F)F (stereo not drawn) | 13.1 |
| Cc1ccc(C)c(NC(=O)c2cnn(-c3ccccc3)c2C)c1 | 14.2 |
| S=C(NCc1ccco1)N1CCN(c2ccc(Cl)cc2)CC1 | 20 |
| CCCC(C)NC(=O)CN1C(=O)NC2(CCc3ccccc32)C1=O (stereo not drawn) | 22.2 |

| SMILES | hERG current change (%, negative = inhibition) at 10uM [%] |
| --- | --- |
| Cc1ccc(-c2noc(CSc3nnc(CCc4ccccc4)n3-c3ccccc3)n2)cc1 | -17.5 |
| CCc1ccc2[nH]c3nc(N/N=C/c4cccc(O)c4)nnc3c2c1 | 24.8 |
| CCOC(=O)Cn1c(-c2ccc(OC)cc2)c(-c2ccc(OC)cc2)nnc1=O | 9.79 |
| COc1ccc(-c2cc(C(=O)Nc3ccc4c(c3)OCO4)no2)cc1 | 20.3 |
| O=C(Nc1cccc(F)c1)c1cccnc1N1CCOCC1 | -0.522 |
| Cc1ccc(CNC(=O)c2cc(=O)c3ccc(C)cc3o2)cc1 | 14.5 |
| O=C(Nc1ccc2oc(=O)ccc2c1)c1cccnc1Cl | -13.4 |
| Clc1cccc(-c2ccc(C=Nc3ccc(N4CCOCC4)cc3)o2)c1 | 5.17 |
| CC(C)NS(=O)(=O)c1ccc(OCC(N)=O)c(Cl)c1 | 21.6 |
| Cc1cc(-c2ccc(C)c(S(=O)(=O)NCCCN(Cc3ccccc3)C(C)C)c2)on1 | -36.9 |
| COc1ccccc1N1CC(C(=O)Nc2nnc(SCC(=O)NC(C)C)s2)CC1=O (stereo not drawn) | 20.1 |
| O=C(O)CCn1c(-c2ccccc2)cc2ccccc21 | 9.79 |
| c1ccc(COc2ccc(OCCCn3cncn3)cc2)cc1 | -19.4 |
| O=C(Nc1ccc(C(=O)N2CCOCC2)cc1)c1cc(-c2cccnc2)nc2ccc(Cl)cc12 | 10.6 |
| Cc1ccc(C(=O)CNc2cccc([N+](=O)[O-])c2)cc1 | 20 |
| C=C(C)CNC(=S)NN=C1c2ccccc2-c2ccccc21 | 6.79 |
| COC(=O)CCS(=O)(=O)c1cc(Cl)ccc1Cl | 9.61 |
| NC(=O)CCCn1c(C(=O)c2ccc(Cl)cc2)c2ccc([N+](=O)[O-])cc2[n+]1[O-] | -74.1 |
| Cc1ccc(C)c(N2CCN(c3ccncc3N)CC2)c1 | -47.8 |
| NC(=O)c1ccc(NC(=O)Cc2csc(-c3ccccc3)n2)cc1 | 9.31 |
| CCOC(=O)c1c(C)[nH]c(C(=O)COC(=O)/C=C/c2ccc(OC(F)F)cc2)c1C | 2.3 |
| S=c1[nH]ccn1Cc1ccccc1 | 13.3 |

| SMILES | hERG current change (%, negative = inhibition) at 10uM [%] |
| --- | --- |
| Cc1ccc(NC(=O)CC2C(=O)NCCN2C(=S)Nc2ccccc2)c(C)c1 (stereo not drawn) | 2.6 |
| CC(=O)CSc1nnc(-c2ccc(S(=O)(=O)N3CCC(C)CC3)cc2)o1 | 14.2 |
| COC(=O)CC1c2ccccc2S(=O)(=O)N1Cc1ccccc1 (stereo not drawn) | -0.294 |
| CCCCCn1c(CN2CCN(C(=O)c3ccco3)CC2)nc2c1c(=O)n(C)c(=O)n2C | -60.5 |
| COc1cccc(CNC(=O)C2CCN(C(=O)N3CC(C)Oc4ccccc43)CC2)c1 (stereo not drawn) | -11.8 |
| Cc1ccccc1NC(=O)C1Cc2ccccc2C(=O)O1 (stereo not drawn) | 4.61 |
| CCOC(=O)Cn1c(=N)n(CCOc2ccc(F)cc2)c2ccccc21.Cl | -65.8 |
| CCCOc1ccc(Br)cc1/C=N/O | -13.4 |
| NS(=O)(=O)c1ccc(N/N=C2/CCCc3ccccc32)c([N+](=O)[O-])c1 | 24.6 |
| Cc1ccc(-c2nnn(CC(=O)N(c3cccc(O)c3)C(C(=O)NC(C)(C)C)c3cccs3)n2)o1 (stereo not drawn) | 9.58 |
| Cn1c(=O)c(C(=O)COc2ccc(F)cc2Cl)c(N)n(Cc2ccccc2)c1=O | 17.8 |
| c1csc(CCNc2ncnc3sc4c(c23)CCC4)c1 | -26.6 |
| Cc1cc(C(=O)Cn2nnc(-c3ccc(Cl)cc3)n2)c(C)n1-c1ccccc1 | 6.13 |
| COc1cccc(CNC(=O)CN(c2cc(C)cc(C)c2)S(=O)(=O)c2c(C)noc2C)c1 | -6.66 |
| COc1ccc(/C=N/NC(=O)c2cccnc2)cc1COc1ccc(NC(C)=O)cc1 | 20 |
| CCOC(=O)C1CCCN(C(=O)c2c(-c3ccccc3Cl)noc2C)C1 (stereo not drawn) | 5.46 |
| Cc1ccc(-n2c(SCC(=O)N3CCCCC3)nc(O)c(Cc3ccccc3)c2=O)cc1 | 22.4 |
| COCc1nnc(NC(=O)c2cccc(NC(=O)c3ccccc3)c2)s1 | -8.59 |
| CCNc1c(NS(=O)(=O)c2ccc(Br)s2)c(=O)oc2ccccc12 | -4.26 |
| O=[N+]([O-])c1ccc2c(c1)C(N1CCOCC1)/C(=C/COc1ccc3ccccc3c1Br)O2 (stereo not drawn) | 14.7 |
| CC(=O)c1c(C)[nH]c(C(=O)CN2C(=O)NC(CCc3ccccc3)C2=O)c1C (stereo not drawn) | 5.19 |

Source: PMC4336329 (PLoS ONE, 2015)
